Assay results taken from the supplement of paper PMC3334620.
Over roughly 33,000 sequences, “E-score (-0.5 to 0.5)” has its median near -0.012; the highest 2% begin near 0.27. Some of the results follow.

The sequences below were run against T1, Vhr1 (UniProt P40522) (assay: PBM E-score (8-mer binding enrichment) (E-score (-0.5 to 0.5)); higher = stronger / more preferred TF binding; most listed sequences are background and not binding sites). Conditions: protein concentration: 200 nM; construct: GST-full length.
T1 sequence: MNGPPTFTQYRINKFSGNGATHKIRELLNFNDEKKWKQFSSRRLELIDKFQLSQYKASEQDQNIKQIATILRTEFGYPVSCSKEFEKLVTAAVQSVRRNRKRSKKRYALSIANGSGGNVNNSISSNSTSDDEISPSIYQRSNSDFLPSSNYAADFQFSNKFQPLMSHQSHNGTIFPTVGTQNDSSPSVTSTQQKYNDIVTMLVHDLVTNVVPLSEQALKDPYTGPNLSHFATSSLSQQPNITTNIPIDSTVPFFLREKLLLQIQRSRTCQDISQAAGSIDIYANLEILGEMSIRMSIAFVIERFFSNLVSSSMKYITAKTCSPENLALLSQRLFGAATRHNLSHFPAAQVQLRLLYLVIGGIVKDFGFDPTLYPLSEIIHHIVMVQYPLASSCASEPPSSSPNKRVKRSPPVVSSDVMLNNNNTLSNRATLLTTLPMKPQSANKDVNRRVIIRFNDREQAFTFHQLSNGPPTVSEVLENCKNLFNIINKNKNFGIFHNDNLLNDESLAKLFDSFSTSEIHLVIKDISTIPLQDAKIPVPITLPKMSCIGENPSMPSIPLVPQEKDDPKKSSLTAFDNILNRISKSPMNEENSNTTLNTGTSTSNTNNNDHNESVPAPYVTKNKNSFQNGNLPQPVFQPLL
Method in brief: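 Universal all-10-mer Agilent arrays, fresh or stripped once, were converted to double-stranded form by primer extension. GST-tagged yeast transcription factors from PURExpress in vitro transcription/translation, full-length or DNA-binding domain only, were applied at about 100-200 nM and detected with fluorescent anti-GST. After masliner normalisation, the Universal PBM Analysis Suite scored each ungapped eight-base word together with its reverse complement by E-score.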

Sequence	PBM E-score
ATTTGGCC	-0.128
AACGCCTT	-0.344
ATCATAAT	0.206
CGGCGTTA	-0.0527
CTCGGTTC	-0.112
AAGTATTC	-0.0531
AGAGTGCT	-0.067
CGGCGTGA	0.142
CCTACCAA	0.0676
AGGGTGCA	-0.033
CCCTGCGA	-0.0219
CGTCGGCA	0.044
CGTCGCAA	0.0851
AAATCACC	0.312
GCACAGGA	0.00719
GTCAAAGA	-0.228
AATCCGCT	-0.0793
AACTTGAA	-0.103
CTTTCTGA	-0.169
AGGCCTGG	-0.223
ACACAGCG	0.312
TAGTCCAA	-0.157
CGTTCCAC	-0.161
AGTACTGG	-0.0217
ACATCGTA	0.146

Sequence	PBM E-score
ATTAAAGA	-0.0149
TCGTTCCA	-0.338
ATGTTTGC	-0.116
ACATACGA	0.126
TCCGTGCA	-0.00278
GTGATGGA	0.0761
CTTAATTA	-0.0565
CAGACTAC	0.136
CAACCTTA	-0.104
ATAGACTC	0.0405
CAAGCCAA	0.0231
GAGTAGCA	0.03
AGTACAAG	0.193
AACACCAA	0.0981
ATCATTTC	0.0295
ATACAACG	-0.0554
CTAAAACC	-0.253
CGGCCTAG	-0.0469
ACGTACGT	-0.17
ACTACTCA	0.238
ACCGAGCG	0.206
CGCGTCGA	0.147
ACAGCACG	0.118
AAAGGCAC	-0.227
CGTCTGAA	-0.185

Sequence	PBM E-score
AATTTTAA	-0.176
GGTTCGCA	0.0758
CTGGCTTA	-0.0672
CTGTACCC	-0.0212
GGTAAAGA	-0.163
AATGAGTA	0.223
GCGGTGCA	-0.097
ATAGCCAA	0.145
ATTAAATG	0.0219
AACTGGGT	-0.041
AAATGCCC	-0.224
ACCTTCCG	0.0124
ACGATTTG	0.141
CTATTAGC	0.0772
CCAAGTTA	-0.0722
TTCCGAAA	-0.158
ATTTAATC	0.158
GGAATAAA	-0.214
CGGACCTA	-0.036
GGGTCCAA	-0.138
ATCATAAA	0.0452
TAAGTACA	-0.0281
ACACTCCC	0.0331
CATTTTCA	-0.0121
CAGGAATA	0.026

Sequence	PBM E-score
GGTCCGTA	-0.127
ATCAGCAG	0.236
ACAGCGTC	0.204
AGGAGCCT	-0.267
CACTGGAG	-0.0471
ACATCCGG	0.0894
GCTTGGGA	-0.0668
CGGACGCC	-0.062
AATGGCCT	-0.0853
GGATGGAA	-0.132
ATCGCGGG	0.157
AGTCTGAG	0.0939
AGTTAAGG	-0.0492
ACATAGCA	0.0916
CTATTTAA	-0.231
ACTGCTCG	-0.0151
TAGGAATA	-0.103
CCGTATAG	-0.035
GTCTTTAA	-0.129
ATTTTATG	0.0686
CTACGTGC	0.00688
CCAGTACG	0.0275
GCAGAAGA	-0.184
AGACATAA	0.0468
CGGGCCGA	-0.00376

Sequence	PBM E-score
CCGAATGC	-0.0649
TCCTAGCA	-0.145
TTCAAGAA	-0.231
GGTTGTAA	-0.0284
AGTCAGGA	0.355
AGGGAAGC	-0.139
TCGAGAAA	-0.1
GCGGGGAA	0.198
CTGCCAAG	-0.221
AGAAAAAG	-0.166
GAAGGCCC	-0.291
CCTTCCCG	-0.0561
AATGTTCA	0.0227
CAAGAAGG	-0.0484
GTGGACCA	0.0132
CGGGGGCC	-0.00988
CACTCTGC	0.108
AGACTGAT	0.00223
GGTCGGTA	-0.0355
CGTCAAGC	-0.147
GTCCGTGA	0.0595
AGGACTAG	0.0539
GATGCACC	-0.0933
GATTGCCC	-0.165
CGTTTGTC	0.00711

Sequence	PBM E-score
CTAACCAC	0.114
ACTGCTTC	-0.0428
TATCGGAA	-0.0585
GTCGCTTA	-0.114
GTGCCCTA	-0.252
AATCCCAG	0.0917
CTAGCGAC	-0.00899
AGTCCATC	-0.0289
GAGTACGA	0.234
GCCATGGA	0.0483
TCGGCTCA	-0.0779
GCAGTATA	0.0737
CGTCGCGA	0.181
ACCTGGCT	0.054
AACATGAC	0.257
CGACGTAA	-0.0016
GTCCCCGA	-0.0721
CGACTCAA	0.386
ACCGGTAT	-0.0468
CACAGCAA	0.204
ACTGCTAT	0.136
CGGTAAAC	-0.115
AAGGTGGA	-0.0152
AATGGCGC	-0.182
ATCCTGAA	0.194

Sequence	PBM E-score
AGACATCG	0.0974
CGATTACA	-0.0503
ATGCCAAA	-0.0835
AACTCGCG	0.172
CTAATACC	-0.0756
GCCTACTA	0.152
ATTAGTTG	0.0201
ACTAGTCC	0.133
GGGTAAGA	0.0216
TACCATCA	0.0508
CGCTTTGA	-0.121
AGGGGACC	-0.0666
ATAATAAA	0.0623
TAGACTCA	0.221
ACTCGGTC	0.0948
GCGCAAGC	0.131
ACGCTTAA	-0.13
ACACCAGC	-0.0125
AGCTGATA	-0.105
AAAAAGAC	-0.239
TCAGACGA	0.137
CTAAGTAC	-0.0397
